Source: PubChem BioAssay AID686979 (National Center for Advancing Translational Sciences (NCATS), 2013)
Among all 420,000 compounds or so, about 50,000 (12%) were called active. Inconclusive means that the source gave no clear call. Such entries were picked first, then a sample of the others. The call rests on the fitted dose curve; in most records, active means well fitted inhibition curve with a large enough effect; inconclusive means small, poorly fitted or top-dose-only effect; inactive means flat fitted curve, though single readings scatter. No potency is given beside an inconclusive call; the fits are too rough.
On the % scale 0 is the no-effect control and ±100 the full control effect; potency means the concentration at half of the fitted maximal effect; tags describe the fitted curve by direction and shape.

Test: qHTS for Inhibitors of human tyrosyl-DNA phosphodiesterase 1 (TDP1): qHTS in cells in presence of CPT; further: nearly all actives have a fitted effect of over 55% in size
Details: chicken DT40 Tdp1-/-;hTDP1 cells + 20 nM CPT, ATP luminescence, 48 h; activity change, negative = growth inhibition: at 46.2 µM (top of the series)
How it was run: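 Chicken DT40 Tdp1-/- cells stably complemented with human TDP1 were seeded at 400 cells/well in medium containing 20 nM camptothecin, exposed to pin-transferred compounds, and grown at 37 °C for at least 48 hr. Viability was read as ATP luminescence.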
In the case of `COc1ccc(NCc2nc3ccccc3n2CCOc2ccccc2C)cc1`, the Potency is reported as active: 18.4 µM.
In the case of `Cc1ccc(S(=O)(=O)N2CCN(c3nc(-n4cnc5ccccc54)nc4ccccc34)CC2)cc1`, the Potency is reported as inconclusive [inhibitor, full curve, poor fit].
With `Cc1nc(-c2ccc(NC(=O)c3ccco3)cc2)cs1` the Potency was active: 13 µM.
For `O=C(COC(=O)c1cc(Cl)ccc1O)Nc1ccc2c(c1)OCCO2`, the Potency was inconclusive [inhibitor, single point].
In the case of `COc1ccc(NC(=O)C2CCCN(c3cc(C)nc4ncnn34)C2)cc1` (configuration not stated), the “activity change, negative = growth inhibition” value is reported as inactive: -0.163%.
In the case of `Nc1c(N(Cc2ccccc2)C(=O)COc2ccc(F)cc2Cl)c(=O)[nH]c(=O)n1Cc1ccccc1`, the Potency is reported as inconclusive [inhibitor, single point].
With `O=C(OCc1ccccc1)c1cc(S(=O)(=O)N2CCCCC2)ccc1N1CCOCC1` the Potency was inconclusive [inhibitor, single point].
With `CSc1ccccc1OCc1cc(C(=O)N(C)C(C)c2nc(C)cs2)no1` (configuration not stated) the Potency was inconclusive [inhibitor, single point].
For `Cc1ccc(-c2nnc(SCC(N)=O)nc2-c2ccc(C)cc2)cc1`, the Potency was inconclusive [inhibitor, single point].
In the case of `CN(C)c1ccc(C(=O)OCC(=O)NC2CCCCC2)cc1`, the Potency is reported as inconclusive [inhibitor, single point].
In the case of `CN(CCC#N)C(=O)COC(=O)c1ccc(Cl)c(S(=O)(=O)N(C)c2ccccc2)c1`, the “activity change, negative = growth inhibition” value is reported as inactive: -21.4%.
For `O=c1c2ccccc2nc(COc2ccccc2)n1/N=C/c1ccc(O)cc1O`, the Potency was inconclusive [inhibitor, single point].
With `COCCN(CCOC)c1ncnc2c1cnn2-c1ccc(Cl)cc1` the Potency was inconclusive [inhibitor, single point].
For `COc1ccccc1-c1nnc(SCC(=O)Nc2ccc(S(N)(=O)=O)cc2)n1C`, the “activity change, negative = growth inhibition” value was inactive: -8.23%.
For `Cc1cc(NC(=O)c2cc(-c3ccncc3)nc3c(C)cccc23)no1`, the Potency was active: 4.11 µM.
For `COC(=O)c1cc(S(=O)(=O)N2CCCC2=O)c(Cl)cc1Cl`, the “activity change, negative = growth inhibition” value was inactive: 1.6%.
With `O=C1C2C3C=CC(CNS(=O)(=O)c4ccccc4[N+](=O)[O-])(O3)C2C(=O)N1c1ccccc1` (configuration not stated) the Potency was inconclusive [inhibitor, single point].
For `CC(C)C(C(=O)NCc1ccccc1)N1CCN(c2ccccc2F)CC1` (configuration not stated), the Potency was inconclusive [inhibitor, single point].
For `COCCn1c(C)cc(O)c(C(c2ccccc2)N2CCN(c3ccc(F)cc3)CC2)c1=O` (configuration not stated), the “activity change, negative = growth inhibition” value was inactive: -9.36%.
With `O=C(NN1C(=O)NC2(CCCCC2)C1=O)c1cc(F)cc(F)c1` the Potency was inconclusive [inhibitor, single point].
With `C[C@H](CO)N1C[C@H](C)[C@@H](CN(C)C(=O)Nc2ccccc2)Oc2c(NC(=O)NC3CCCCC3)cccc2C1=O` the Potency was inconclusive [inhibitor, single point].
With `O=C(NCCc1ccc(Cl)cc1)c1ccc(CS(=O)(=O)Cc2ccc(F)cc2)o1` the “activity change, negative = growth inhibition” value was inactive: -20.7%.
In the case of `Cc1cccc2c(N=NC(=O)c3ccc(NS(=O)(=O)c4cccs4)cc3)c(O)[nH]c12`, the Potency is reported as inconclusive [inhibitor, single point].
For `O=S(=O)(NCC(c1ccco1)N1CCN(c2ccc(F)cc2)CC1)c1ccc2c(c1)OCCO2` (configuration not stated), the Potency was inconclusive [inhibitor, single point].
In the case of `COc1cc(NS(=O)(=O)c2ccc(NC(=O)CCC(=O)O)cc2)nc(OC)n1`, the “activity change, negative = growth inhibition” value is reported as inactive: -5.82%.
With `Cc1cccc(C)c1Nc1nnc(SCc2nc3ccccc3c(=O)[nH]2)s1` the Potency was inconclusive [inhibitor, single point].
For `CCc1nnc(NC(=O)CCS(=O)(=O)Cc2ccccc2)s1`, the Potency was active: 14.6 µM.
For `OC(CNc1ncnc2sccc12)c1ccccc1` (configuration not stated), the Potency was active: 4.11 µM.
For `COc1ccc(CCN(Cc2ccccn2)C(=S)Nc2ccc(C)cc2)cc1OC`, the Potency was inconclusive [inhibitor, single point].
In the case of `CC(=O)c1cccc(NC(=O)C2=CN3CCS(=O)(=O)N=C3C=C2)c1`, the “activity change, negative = growth inhibition” value is reported as inactive: 14.8%.
For `CC1CCCN(c2ccc(C(=O)NCc3ccc4c(c3)OCO4)cc2[N+](=O)[O-])C1` (configuration not stated), the Potency was inconclusive [inhibitor, single point].
With `COc1ccc(CC(=O)NCc2ccc3c(c2)cc(C)n3C)cc1` the “activity change, negative = growth inhibition” value was inactive: -1.41%.
For `Cc1ccc2c(c1)c1c(n2C)-c2[nH]ncc2CC1`, the Potency was inconclusive [inhibitor, single point].
With `C=CCSc1nnc(NC(=O)C2CC(=O)N(c3ccc4c(c3)OCCO4)C2)s1` (configuration not stated) the “activity change, negative = growth inhibition” value was inactive: -16.7%.
For `Oc1ccc(Br)cc1/C=N/Nc1ncc(-c2ccccc2)cn1`, the Potency was active: 6.51 µM.
In the case of `COc1ccc(-c2nnc(SCc3cccnc3)o2)cc1`, the “activity change, negative = growth inhibition” value is reported as inactive: -2.9%.
In the case of `COc1cc(C(=O)N/C(=C\c2cn(C)c3ccccc23)C(=O)N2CCOCC2)cc(OC)c1OC`, the “activity change, negative = growth inhibition” value is reported as inactive: 12.5%.
In the case of `COC(=O)c1c(SC)nc2ccccc2c1OCc1cccc(C)c1`, the Potency is reported as inconclusive [inhibitor, partial curve].
With `CCCCNC(=O)CSc1ccc(S(=O)(=O)N2CCOCC2)cn1` the “activity change, negative = growth inhibition” value was inactive: -6.26%.
For `CCOc1ccc(N2C(=O)/C(=C\c3ccccc3OC)S(=O)(=O)C2c2cccc([N+](=O)[O-])c2)cc1` (configuration not stated), the Potency was active: 14.6 µM.
In the case of `OC(CNC1CCCCC1)CON=C1CCSc2c(Cl)cccc21` (configuration not stated), the Potency is reported as active: 23.1 µM.
In the case of `Cc1ccc(C(=O)N/N=C\c2ccc([N+](=O)[O-])o2)cn1`, the Potency is reported as inconclusive [inhibitor, single point].
With `CCc1ccc(S(=O)(=O)/N=C2\C=C(Nc3ccc(O)cc3)C(=O)c3ccccc32)cc1` the Potency was active: 4.11 µM.
For `Cc1ccc(S(=O)(=O)N2CCN(Cc3ccccc3C(F)(F)F)CC2)cc1`, the “activity change, negative = growth inhibition” value was inactive: -8.95%.
For `CCN(CC(=O)Nc1ccc2c(c1)OCCO2)C(=O)COc1ccc(C(C)=O)cc1`, the “activity change, negative = growth inhibition” value was inactive: 6.69%.
For `O=C(NNS(=O)(=O)c1ccc(Cl)cc1)c1cc(-c2ccccc2)n[nH]1`, the activity change, negative = growth inhibition was inconclusive: -37% [inhibitor].
In the case of `COc1ccc(C(CNC(=O)c2cccc(S(=O)(=O)Nc3ccc(F)cc3)c2)N2CCCCC2)cc1` (configuration not stated), the Potency is reported as inconclusive [inhibitor, single point].
In the case of `C(=NN=C(NN=Cc1cccs1)NN=Cc1cccs1)c1cccs1`, the Potency is reported as active: 5.17 µM.
In the case of `O=C(c1ccccc1)c1ccc(C(=O)N2CCN(c3ccccc3O)CC2)cc1`, the Potency is reported as active: 25.9 µM.
With `O/N=C/c1ccccc1Oc1ccc(Cl)cc1` the Potency was inconclusive [inhibitor, single point].
In the case of `COc1ccc(CNS(=O)(=O)c2ccc(-n3cnnn3)c(C)c2)cc1`, the Potency is reported as inconclusive [inhibitor, partial curve, poor fit].
For `CC1(C(=O)NS(=O)(=O)c2ccc3ccccc3c2)CCN1C(=O)Cc1ccc(-c2ccccc2)cc1` (configuration not stated), the “activity change, negative = growth inhibition” value was inactive: -8.67%.
With `CC(C)(CCl)C(=O)Nc1ccc(Sc2ccc(F)cc2)cc1` the Potency was active: 5.8 µM.
With `CC1CCCC/C1=N\NC(=S)NCCc1ccccc1` (configuration not stated) the Potency was inconclusive [inhibitor, single point].
In the case of `CCOC(=O)c1ccc(NC(=O)c2nc[nH]c2C(=O)N[C@@H](CC(C)C)C(=O)OC(C)(C)C)cc1`, the Potency is reported as inconclusive [inhibitor, single point].
With `COc1ccc2c(c1)Cc1sc(NC(=O)c3ccccc3)nc1-2` the Potency was inconclusive [inhibitor, single point].
With `Cc1ccc(-c2csc(NC(=O)CSC3=NCCS3)n2)cc1` the Potency was inconclusive [inhibitor, single point].
For `COCCN1CCN(C(=O)c2cc(COc3cc(C)ccc3C)on2)CC1`, the Potency was inconclusive [inhibitor, single point].
With `CCc1nnc(NC(=O)CSc2nnc3nc(C)cc(C)n23)s1` the “activity change, negative = growth inhibition” value was inactive: -7.16%.
With `COc1ccc(CN2C(=O)C(CC(=O)NCCCCc3ccccc3)CC(C(=O)N3CCCCCC3)=C2C)cc1` (configuration not stated) the Potency was active: 20.9 µM.
With `O=C(Nc1ccc(F)c(Cl)c1)C1CCN(S(=O)(=O)c2cccnc2)CC1` the Potency was inconclusive [inhibitor, single point].
With `CCn1c(COc2ccc(=O)n(-c3ccccc3)n2)nnc1SCc1ccccc1` the “activity change, negative = growth inhibition” value was inactive: -24.3%.
With `CC(C)n1c(C(F)(F)F)nc2cc(C(=O)N3CCCCC3)ccc21` the “activity change, negative = growth inhibition” value was inactive: 1.7%.
For `O=C(NC(=S)NCCc1ccccc1)c1ccccc1F`, the “activity change, negative = growth inhibition” value was inactive: -27.8%.
In the case of `Cc1csc2nc(COC(=O)c3ccccc3NC(=O)c3ccccc3Cl)cc(=O)n12`, the Potency is reported as inconclusive [inhibitor, single point].
For `Cc1cccc(-c2cc(C(=O)Nc3c(C)n(C)n(-c4ccccc4)c3=O)c3ccccc3n2)c1`, the Potency was active: 25.9 µM.
With `CNC(=O)C1CCC(Cn2c(=O)c3sccc3n(Cc3ccccc3)c2=O)CC1` (configuration not stated) the Potency was inconclusive [inhibitor, full curve].
With `CCOC(=O)C1=NN(c2ccc(C)cc2)C2(S1)SC(C(C)=O)=C(C)N2c1ccccc1` (configuration not stated) the Potency was inconclusive [inhibitor, single point].
With `Oc1cc(-c2cccs2)cc2c1OCCN(Cc1cn[nH]c1-c1ccc(Cl)cc1)C2` the Potency was active: 18.4 µM.
With `CCN(CC)c1ccc(NC(=O)CCS(=O)(=O)c2cccc3nsnc23)c(C)c1` the Potency was inconclusive [inhibitor, single point].
With `COc1ccc(-c2c(C)nn3c(N4CCN(Cc5ccccc5)CC4)cc(C)nc23)cc1OC` the Potency was active: 23.1 µM.
With `Cc1csc(NC(=O)c2nc(-c3ccccc3)n(-c3ccccc3)n2)n1` the Potency was inconclusive [inhibitor, single point].
